Patent publication US20040265960A1 (Pfizer, published 2004)

Target: human IL-21R expressed on cells (human, UniProt Q9HBE5 20-538)
Assay: cell-based or functional assay

Sequence of UniProt Q9HBE5 (Q9HBE5 20-538): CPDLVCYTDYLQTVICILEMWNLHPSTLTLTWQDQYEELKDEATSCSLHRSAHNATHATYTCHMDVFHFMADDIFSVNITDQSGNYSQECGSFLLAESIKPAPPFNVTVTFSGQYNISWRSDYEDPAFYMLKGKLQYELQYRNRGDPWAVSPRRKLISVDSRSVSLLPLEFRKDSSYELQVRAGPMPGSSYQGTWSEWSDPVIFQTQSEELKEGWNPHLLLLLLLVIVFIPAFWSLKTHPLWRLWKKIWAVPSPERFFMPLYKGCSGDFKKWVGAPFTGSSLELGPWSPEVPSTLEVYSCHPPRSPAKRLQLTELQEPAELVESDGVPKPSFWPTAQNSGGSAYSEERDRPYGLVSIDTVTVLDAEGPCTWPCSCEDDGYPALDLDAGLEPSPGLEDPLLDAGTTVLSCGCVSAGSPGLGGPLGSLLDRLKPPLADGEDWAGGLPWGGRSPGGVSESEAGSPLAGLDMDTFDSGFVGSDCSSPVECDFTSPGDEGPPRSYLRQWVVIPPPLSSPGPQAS

B1: CP5G2 scFv (scFv)
scFv: [about 100 residues not given here]GWKLPFFAYWGRGTLVTVSSGGGGSGGGGSGGGGSALSSELTQDPAVSVALGQTVRITCQGDSLRTFYANWYQQKPGQAPILVIYGKSNRPSGIPDRFSGSSSGNTASLTITGAQAEDEADYYCYSRDRSGNHLGMFGGGTKLTVLG
Which “IC50 Value (nM) ScFv, hBaf3Mu-1 cell proliferation assay” value does the source give for B1 here?
The value was 329 nM.
